The campaign covered roughly 310,000 compounds. About 2,200 (0.71%) showed an effect of 50% or more. The effect is printed as a negative number. Some of the results follow.
The compounds below were run against human ether-à-go-go-related gene (hERG) potassium channel (human, UniProt Q12809) (assay: primary screen, population patch clamp on CHO cells stably expressing hERG).
Sequence of human ether-à-go-go-related gene (hERG) potassium channel (Q12809 whole entry, looked up): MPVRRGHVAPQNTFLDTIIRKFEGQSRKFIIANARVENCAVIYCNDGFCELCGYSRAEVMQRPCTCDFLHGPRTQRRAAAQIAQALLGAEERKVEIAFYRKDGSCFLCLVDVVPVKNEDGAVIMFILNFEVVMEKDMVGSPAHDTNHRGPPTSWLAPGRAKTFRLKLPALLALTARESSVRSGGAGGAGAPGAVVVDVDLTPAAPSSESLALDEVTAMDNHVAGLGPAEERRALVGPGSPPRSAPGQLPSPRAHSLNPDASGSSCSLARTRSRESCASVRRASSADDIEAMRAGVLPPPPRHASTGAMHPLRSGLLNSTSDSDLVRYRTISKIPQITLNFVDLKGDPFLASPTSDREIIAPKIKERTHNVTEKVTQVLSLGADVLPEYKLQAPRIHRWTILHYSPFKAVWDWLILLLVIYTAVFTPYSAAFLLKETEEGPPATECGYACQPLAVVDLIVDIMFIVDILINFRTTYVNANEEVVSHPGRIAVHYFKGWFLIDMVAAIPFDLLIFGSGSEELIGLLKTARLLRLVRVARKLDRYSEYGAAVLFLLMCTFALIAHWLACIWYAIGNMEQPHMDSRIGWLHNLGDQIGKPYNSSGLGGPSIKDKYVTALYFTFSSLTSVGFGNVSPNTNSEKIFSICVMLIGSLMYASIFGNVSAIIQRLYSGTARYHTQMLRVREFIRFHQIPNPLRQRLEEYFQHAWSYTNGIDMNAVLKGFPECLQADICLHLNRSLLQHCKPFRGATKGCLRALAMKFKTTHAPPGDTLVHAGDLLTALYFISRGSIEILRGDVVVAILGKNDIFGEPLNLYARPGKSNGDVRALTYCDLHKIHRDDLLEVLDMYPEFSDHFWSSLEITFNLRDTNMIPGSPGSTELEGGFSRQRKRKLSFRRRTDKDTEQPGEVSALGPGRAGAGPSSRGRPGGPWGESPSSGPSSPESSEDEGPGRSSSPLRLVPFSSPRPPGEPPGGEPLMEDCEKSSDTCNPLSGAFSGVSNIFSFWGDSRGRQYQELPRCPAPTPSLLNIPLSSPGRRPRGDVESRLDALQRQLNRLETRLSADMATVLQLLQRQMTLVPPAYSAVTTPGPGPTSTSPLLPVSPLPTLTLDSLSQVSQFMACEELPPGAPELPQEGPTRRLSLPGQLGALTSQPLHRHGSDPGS

First: CCN(CC)CCN(C(=O)c1ccc(N2C(=O)CCC2=O)cc1)c1nc2cc3c(cc2s1)OCO3.Cl
Second: CCOc1ccccc1NC(=O)COc1coc(CN2CCc3ccccc3C2)cc1=O
The “hERG current change (%, negative = inhibition) at 1uM” value of the first is lower: -7.59% for the first, -1.89% for the second.

Compared with `COc1cc(NC(=O)c2nn(C)c3c2CS(=O)(=O)c2ccccc2-3)cc(OC)c1`, `COc1cccc(-c2ccc3c(c2)S(=O)(=O)c2cccc(C(=O)O)c2C3=O)c1OC` is higher in “hERG current change (%, negative = inhibition) at 1uM” value: 3.64% for the first, 10.7% for the second.

Going from `COc1ccc2oc(=O)c(C(=O)NCc3cccnc3)cc2c1` to `COc1ccc(CN2C(=O)c3ccccc3C2C(=O)NCc2cccnc2)c(OC)c1` (centres unmarked), the “hERG current change (%, negative = inhibition) at 1uM” value falls from 12.8% to 9.27%.

Going from `CC(=O)C(Sc1ncnc2c1nnn2-c1ccc(F)cc1)C(=O)N(C)C` (centres unmarked) to `CSc1nnc2c(n1)OC(c1ccc(C(=O)O)cc1)N(C(C)=O)c1ccccc1-2` (centres unmarked), the “hERG current change (%, negative = inhibition) at 1uM” value falls from 10.9% to 4.29%.

First: CCCOc1ccc(C(C)=O)cc1CSCCC#N
Second: Cc1cc(Cl)cc(Br)c1OCCCNCC(C)O (centres unmarked)
The “hERG current change (%, negative = inhibition) at 1uM” value of the first is lower: 9.61% for the first, 12% for the second.

First: CC(=O)N1CCc2cc(S(=O)(=O)Nc3ccc(C)cc3)ccc21
Second: Cc1ccc(NC(=O)CSc2nc(NS(=O)(=O)c3ccc(C)cc3)cc(=O)[nH]2)cc1
The “hERG current change (%, negative = inhibition) at 1uM” value of the first is higher: 13.6% for the first, 3.39% for the second.

Compared with `CCCN1C(=S)SC(C)(C)C1/[N+]([O-])=C/c1cccnc1` (centres unmarked), `CC(=O)C1=C(O)C(=O)N(c2cccnc2)C1c1ccc(Cl)cc1` (centres unmarked) is higher in “hERG current change (%, negative = inhibition) at 1uM” value: -6.75% for the first, 6.38% for the second.

Compared with `COc1ccc(CC(NC(C)=O)C(=O)NC2CCN(c3c(Cc4ccccc4)c(C)nc4ncnn34)CC2)c(OC)c1` (centres unmarked), `COc1ccc(NC(=O)C2CCCN2C(=O)NCc2ccccc2)c(OC)c1` (centres unmarked) is higher in “hERG current change (%, negative = inhibition) at 1uM” value: 10.9% for the first, 13.7% for the second.

Going from `Cc1c(NC(=O)C(C)Sc2nnc(-c3ccccc3)o2)c(=O)n(-c2ccccc2)n1C` (centres unmarked) to `CC(C)n1c2ccccc2c2nnc(SCC(=O)Nc3ccccc3C(=O)O)nc21`, the “hERG current change (%, negative = inhibition) at 1uM” value rises from 5.74% to 16.2%.

Going from `COc1ccc(C2=NN(C(=O)CSc3nc4ccccc4s3)C(c3ccc(F)cc3)C2)cc1` (centres unmarked) to `COc1ccc(C2=NOC(C(=O)N(C)Cc3ccccc3)C2)cc1` (centres unmarked), the “hERG current change (%, negative = inhibition) at 1uM” value falls from 13.6% to 7.36%.

First: O=C1C2C(c3ccccc3)CC=CC2[C@H](c2ccc(C(F)(F)F)cc2)N1Cc1ccccc1 (some centres unmarked)
Second: C=C1CN(Cc2ccccc2)S(=O)(=O)c2ccccc21
The “hERG current change (%, negative = inhibition) at 1uM” value of the first is lower: -0.0453% for the first, 1.34% for the second.

Going from `Cc1ccc2cc3c(NC(=O)CC(C)C)nn(C)c3nc2c1` to `Cc1cccc(NC(=O)Cn2cnc3c(oc4ccccc43)c2=O)c1C`, the “hERG current change (%, negative = inhibition) at 1uM” value rises from 6.72% to 10.8%.

First: CCc1c(C)nc2ccc(Br)cc2c1Cl
Second: Cc1cc(C(=O)N/N=C/c2ccc(C)o2)c2ccccc2n1
The “hERG current change (%, negative = inhibition) at 1uM” value of the first is higher: 0.877% for the first, -3.79% for the second.

Going from `O=C(Cc1cccc(C(F)(F)F)c1)NCc1ccc(Cl)cc1Cl` to `O=C(Nc1ccccc1Cl)c1ccc(Cl)cc1Cl`, the “hERG current change (%, negative = inhibition) at 1uM” value rises from 3.91% to 10.7%.

First: Cc1cccn2cc(-c3c[nH]c4ccccc34)nc12
Second: Cn1cccc1C(=O)OCc1csc(-c2ccccc2)n1
The “hERG current change (%, negative = inhibition) at 1uM” value of the first is lower: -3.26% for the first, 11.5% for the second.

Going from `CC(C)c1ccc(NC(=S)NNC(=O)c2cccs2)cc1` to `CC(=C/c1ccccc1)/C=N/NC(=O)c1cccs1`, the “hERG current change (%, negative = inhibition) at 1uM” value falls from 12.8% to 11%.

Compared with `Cc1cc(Br)c(S(=O)(=O)NCc2ccncc2)cc1C`, `COc1cc2[nH]c(=S)nc(NCc3ccccc3)c2cc1OC` is higher in “hERG current change (%, negative = inhibition) at 1uM” value: 9.59% for the first, 14% for the second.

Going from `COc1ccc(C(=O)/C=C/Nc2ccc(S(=O)(=O)Nc3ncccn3)cc2)cc1` to `O=C(NNC(=O)c1ccccc1O)c1ccc(NS(=O)(=O)c2ccc(F)c(F)c2)cc1`, the “hERG current change (%, negative = inhibition) at 1uM” value rises from 5.41% to 11.8%.

Going from `CC1=C(C(=O)Nc2ccc(C(=O)NCCCN3CCCCC3)cc2)SCCO1` to `COCCN(CCOC)C(=O)C1CCCN(S(=O)(=O)c2ccc(NC(=O)OC)cc2)C1` (centres unmarked), the “hERG current change (%, negative = inhibition) at 1uM” value falls from 7.81% to 3.66%.

Compared with `O=C(NC1CCCCNC1=O)c1ccc(Cl)cc1` (centres unmarked), `Cc1ccc(NC(=S)NC2CCCC2)cc1` is lower in “hERG current change (%, negative = inhibition) at 1uM” value: 15.1% for the first, 7.44% for the second.

First: Fc1ccc(-c2cn3cc(C(F)(F)F)cc(Cl)c3n2)cc1
Second: CCOC(=O)N1N=C(c2ccc(C)cc2)CC1(O)C(F)(F)F (centres unmarked)
The “hERG current change (%, negative = inhibition) at 1uM” value of the first is lower: 3.46% for the first, 6.52% for the second.

Going from `CC(C)CC(NC(=O)c1ccc(Cl)cc1)C(=O)OCC(=O)c1ccc2c(c1)NC(=O)CO2` (centres unmarked) to `CCOc1ccc(C(=O)N[C@H](C(=O)Nc2ccc(OC)c(S(=O)(=O)N3CCOCC3)c2)C(C)C)cc1`, the “hERG current change (%, negative = inhibition) at 1uM” value rises from 6.16% to 9.4%.

Compared with `Cc1cc(C)n(-c2ncnc3sc4c(c23)CCCC4)n1`, `Cc1cc(C)n(-c2nc(SCCN(C)C)c3c4c(sc3n2)CCCC4)n1` is lower in “hERG current change (%, negative = inhibition) at 1uM” value: 9.93% for the first, -0.579% for the second.

Going from `CC1CCOC2(O1)C(=O)N(CN1CCN(c3ccccc3F)CC1)c1ccccc12` (centres unmarked) to `CCC(=O)Nc1c(C(=O)N2CCN(c3ccccn3)CC2)cnn1-c1ccc(C)cc1`, the “hERG current change (%, negative = inhibition) at 1uM” value rises from 0.921% to 2.22%.

First: COc1ccccc1-c1nnc(SC(C)C(=O)N2CCOCC2)o1 (centres unmarked)
Second: COc1cc(C(=O)OC(C)CN2CCOCC2)cc(OC)c1OC.Cl (centres unmarked)
The “hERG current change (%, negative = inhibition) at 1uM” value of the first is higher: 3.17% for the first, -2.63% for the second.

First: Cl.OCCN1CCN(CCCc2c3c(cc4c2CCC4)CCC3)CC1
Second: CCc1cc2c(CN3CCN(CCO)CC3)cc(=O)oc2cc1O
The “hERG current change (%, negative = inhibition) at 1uM” value of the first is lower: 12.3% for the first, 12.5% for the second.

Going from `CC(=O)c1cccc(NC(=O)C(C)OC(=O)CCCN=C2NS(=O)(=O)c3ccccc32)c1` (centres unmarked) to `Cc1ccc(/C=N\NC(=O)CC(=O)NCCc2ccccc2)cc1`, the “hERG current change (%, negative = inhibition) at 1uM” value falls from 15.6% to 6.86%.

Going from `Cc1ccc(C(C(=O)NC2CCCCC2)N(Cc2cccnc2)C(=O)C2COc3ccccc3O2)o1` (centres unmarked) to `CCN(c1ccc(OC)cc1)S(=O)(=O)N1CCCC(C(=O)NCc2ccccc2Br)C1` (centres unmarked), the “hERG current change (%, negative = inhibition) at 1uM” value rises from -22.1% to 13.2%.

Compared with `COCCNC(=O)c1cccc(OC2CCN(Cc3ccc(F)cc3OC)CC2)c1`, `Cn1c(=O)cc(OCCCC(=O)NCc2ccc(F)cc2Cl)c2ccccc21` is lower in “hERG current change (%, negative = inhibition) at 1uM” value: 10.6% for the first, -0.234% for the second.

First: Cc1cc([N+](=O)[O-])nn1CCCC(=O)NCc1ccccc1
Second: CCOC(=O)c1cnc2ccccc2c1NCc1ccco1
The “hERG current change (%, negative = inhibition) at 1uM” value of the first is higher: 7.3% for the first, -14.7% for the second.

Going from `COc1ccc(NC(=O)CCCCCN2C(=O)[C@@H]3Cc4ccccc4CN3C2=O)cc1Cl` to `CC1Cc2ccccc2N1C(=O)CN(C)CC(=O)Nc1ccc(OC(F)(F)F)cc1` (centres unmarked), the “hERG current change (%, negative = inhibition) at 1uM” value falls from -0.184% to -0.294%.

Going from `O=C(COC(=O)C1CCN(S(=O)(=O)c2cccs2)CC1)Nc1ccccc1` to `O=C(NCc1ccc(Cl)cc1)C(=O)NCC1OCCCN1S(=O)(=O)c1cccs1` (centres unmarked), the “hERG current change (%, negative = inhibition) at 1uM” value falls from 7.75% to 3.89%.

Going from `CNc1nnc(-c2ccc(N(C)C)cc2)s1` to `CN(C)CCNc1ncnc2c1sc1nc(-c3ccccc3)c3c(c12)CCCC3`, the “hERG current change (%, negative = inhibition) at 1uM” value falls from 8.56% to 8.06%.

Going from `CN(C1CCCCC1)S(=O)(=O)c1ccc(Cl)c(C(=O)O)c1` to `Cc1ccc([N+](=O)[O-])cc1S(=O)(=O)N1CCCCC1C(=O)O` (centres unmarked), the “hERG current change (%, negative = inhibition) at 1uM” value rises from 5.14% to 13.5%.

First: COC(=O)c1c(NC(C)=O)sc2c1CCCC2
Second: COC(=O)c1ccc(NC(=O)C[n+]2ccccc2C)cc1.[Cl-]
The “hERG current change (%, negative = inhibition) at 1uM” value of the first is lower: 2.13% for the first, 10% for the second.

First: CC(C)C(=O)Nc1ccc(N2CCN(C)CC2)c(F)c1
Second: O=C(Cc1ccc(Cl)cc1)N1CCN(C(=O)c2ccco2)CC1
The “hERG current change (%, negative = inhibition) at 1uM” value of the first is higher: 16% for the first, 4.2% for the second.

Compared with `NNC(=O)CNc1cccc(Cl)c1`, `CCn1nccc1C(=O)Nc1ccccc1OC` is higher in “hERG current change (%, negative = inhibition) at 1uM” value: 12.4% for the first, 19.3% for the second.

Compared with `O=[N+]([O-])c1ccc(N2CCN(S(=O)(=O)c3cnc[nH]3)CC2)cc1`, `Cc1ccc(C)c(S(=O)(=O)N2CCN(C(=O)CCCc3c[nH]c4ccccc34)CC2)c1` is higher in “hERG current change (%, negative = inhibition) at 1uM” value: -32.2% for the first, -1.38% for the second.

Going from `O=C(CCC(=O)N/N=C/c1ccco1)N/N=C/c1ccco1` to `COc1ccc(/C=C/C(=O)NCC(=O)N/N=C/c2cccnc2)cc1`, the “hERG current change (%, negative = inhibition) at 1uM” value falls from 19.8% to 5.75%.

Compared with `COC(=O)/C(=C\c1ccc(O)cc1)c1nc2ccccc2[nH]1`, `Nc1[nH]ncc1-c1ccccc1` is lower in “hERG current change (%, negative = inhibition) at 1uM” value: 12.9% for the first, 4.87% for the second.

Compared with `COc1cc2c(C(=O)N3CCN(C4CCCCC4)CC3)cn(CC(C)C)c(=O)c2cc1OC`, `COc1ccc(-c2nc(CN3CCCCC3c3nccn3C)c(C)o2)c(C)c1C` (centres unmarked) is higher in “hERG current change (%, negative = inhibition) at 1uM” value: -13.6% for the first, 0.294% for the second.

Compared with `CO/N=C(\N)c1ccc([N+](=O)[O-])cc1`, `COc1ccc(NS(=O)(=O)c2ccc(N3CCCC3)c(NC(=S)Nc3ccc(SC(F)F)cc3)c2)cc1` is higher in “hERG current change (%, negative = inhibition) at 1uM” value: -1.65% for the first, 14.2% for the second.

Going from `CN(C)CCCNC(NC(=O)c1cccs1)C(Cl)(Cl)Cl` (centres unmarked) to `COc1cc(CNCCCN2CCOCC2)cc(Cl)c1OCC(=O)NC(C)(C)C.Cl`, the “hERG current change (%, negative = inhibition) at 1uM” value rises from 9.37% to 21.6%.

First: S=C(NCc1ccco1)NCC(c1ccco1)N1CCCCC1 (centres unmarked)
Second: O=C(O)CCCC(=O)Nc1ccccc1C(=O)N1CCCC1
The “hERG current change (%, negative = inhibition) at 1uM” value of the first is higher: 9.79% for the first, -1.41% for the second.

For `C=C(C)C1CCC(C)=C1CC(C)(C)/C=N\n1cnnc1` (centres unmarked), the “hERG current change (%, negative = inhibition) at 1uM” value was 20.3%.

— PMC4336329 (PLoS ONE, 2015)
